# Measurements reported in PMC4336329 (PLoS ONE, 2015).
# Out of some 310,000 compounds screened, about 2,200 (0.71%) showed an effect of 50% or more. Effects have a minus sign here. The list shows a part of the results.
# Biological target: human ether-à-go-go-related gene (hERG) potassium channel (human, UniProt Q12809)
# Test: primary screen, population patch clamp on CHO cells stably expressing hERG
# Sequence of human ether-à-go-go-related gene (hERG) potassium channel (Q12809 whole entry, looked up): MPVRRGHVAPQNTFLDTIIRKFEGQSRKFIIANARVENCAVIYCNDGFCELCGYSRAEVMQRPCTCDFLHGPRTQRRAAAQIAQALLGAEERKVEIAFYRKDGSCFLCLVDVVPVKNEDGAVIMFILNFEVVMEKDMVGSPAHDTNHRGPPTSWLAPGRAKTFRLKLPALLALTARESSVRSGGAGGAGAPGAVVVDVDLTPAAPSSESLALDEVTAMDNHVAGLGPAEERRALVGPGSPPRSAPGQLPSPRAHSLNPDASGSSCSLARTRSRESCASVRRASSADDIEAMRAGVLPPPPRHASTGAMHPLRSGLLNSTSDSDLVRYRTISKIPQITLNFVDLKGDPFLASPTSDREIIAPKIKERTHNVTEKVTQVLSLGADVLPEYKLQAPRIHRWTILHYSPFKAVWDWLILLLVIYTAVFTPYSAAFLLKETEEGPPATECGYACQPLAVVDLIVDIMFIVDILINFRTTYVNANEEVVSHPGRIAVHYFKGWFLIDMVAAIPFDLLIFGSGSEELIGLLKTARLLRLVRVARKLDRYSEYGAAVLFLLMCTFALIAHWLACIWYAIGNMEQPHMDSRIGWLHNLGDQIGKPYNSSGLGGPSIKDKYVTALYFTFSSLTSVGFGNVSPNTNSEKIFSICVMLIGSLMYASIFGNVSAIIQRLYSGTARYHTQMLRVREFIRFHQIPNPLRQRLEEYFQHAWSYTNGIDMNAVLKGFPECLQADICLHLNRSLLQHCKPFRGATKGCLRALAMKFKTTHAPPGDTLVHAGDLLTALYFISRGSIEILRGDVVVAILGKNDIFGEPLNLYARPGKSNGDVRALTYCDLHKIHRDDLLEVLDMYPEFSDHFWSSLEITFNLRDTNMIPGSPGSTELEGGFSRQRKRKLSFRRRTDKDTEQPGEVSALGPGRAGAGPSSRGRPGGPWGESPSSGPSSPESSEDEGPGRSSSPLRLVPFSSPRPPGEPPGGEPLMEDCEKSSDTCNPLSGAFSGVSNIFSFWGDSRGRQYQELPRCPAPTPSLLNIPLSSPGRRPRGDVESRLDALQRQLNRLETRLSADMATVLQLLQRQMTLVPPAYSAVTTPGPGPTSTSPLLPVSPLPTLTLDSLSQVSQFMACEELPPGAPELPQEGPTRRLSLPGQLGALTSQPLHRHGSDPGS
row,Compound,"hERG current change (%, negative = inhibition) at 1uM [%]"
1,[Cl-].c1ccc(CNc2cccc[nH+]2)cc1,14.1
2,COCCNC(=S)Nc1ccc(Cl)c(Cl)c1,1.58
3,Cn1nnnc1SCC(=O)Nc1nc(-c2ccc(F)c(F)c2)cs1,12.9
4,COc1ccccc1N(C)S(=O)(=O)c1ccc(C(=O)N(CC(N)=O)C(C)C)cc1,10.2
5,CCCCOc1ccc(S(=O)(=O)NCc2csc(C)n2)cc1,4.14
6,Cc1ccc(NC(=O)c2oc3ccccc3c2C)nc1,9.66
7,COCCCNC(=O)c1c(N)n(-c2ccccc2)c2nc3ccccc3nc12,10.1
8,COc1ccc(N2CCN(c3nc(Nc4ccc(C)c(F)c4)nc(N4CCCC4)n3)CC2)cc1,5.24
9,CCOC(=O)c1c(-c2ccccc2)nc2cc(C)ccn12,3.7
10,COc1ccc(-c2cc(C(=O)NCc3cn(C)nc3C)c3ccccc3n2)cc1OC,14.3
11,Cn1cc(Br)c(NC(=O)/C=C/C(=O)O)n1,2.68
12,FC(F)Sc1ccc(-n2cc(-c3ccccc3)[n+]3c2CCC3)cc1.[Br-],-25.9
13,Cc1nc(Nc2ccc(C(=O)O)cc2)sc1-c1ccccc1,-3.34
14,Clc1cccc2sc(N3CCOCC3)nc12,8.82
15,CCOC(=O)CSC1=NC(=O)/C(=C\c2ccc(Cl)cc2)S1,5.04
16,Cc1ccccc1S(=O)c1ccccc1C(=O)O (stereo not drawn),5.25
17,Cc1ccc(/C=C/C(=O)O)cc1S(=O)(=O)Nc1ccc2c(c1)OCO2,13.4
18,Cc1sc2nc(CSCC(=O)Nc3c(Cl)cccc3Cl)[nH]c(=O)c2c1C,11.4
19,CC(Oc1ccc2c(-c3ccccc3)cc(=O)oc2c1)C(=O)NCCCN1CCOCC1 (stereo not drawn),-2.36
20,Cc1ccc(-c2nnn(CC(=O)N(CC(=O)NC3CCCC3)c3cnc4ccccc4c3)n2)o1,2.75
21,S=C(NCc1ccc2c(c1)OCO2)NC1CC1,-4.91
22,CC(=O)CCC(=O)N1CCCC(CNC(=O)c2ccc(-c3ccccc3)cc2)C1 (stereo not drawn),4.72
23,Cc1cc2ccccc2nc1SCC(=O)Nc1nc(-c2ccccc2)cs1,7.4

row,Compound,"hERG current change (%, negative = inhibition) at 1uM [%]"
1,COC(=O)c1c(NC(=O)CN2C(=O)C(=O)N(CC(C)C)C2=O)sc(C)c1C,9.77
2,C=CCn1c(SCC(=O)Nc2cc(C)nn2-c2ccccc2)nnc1C1CCCCC1,6.74
3,O=C(CCN1C(=O)C2CCCCC2C1=O)N1CCN(S(=O)(=O)c2c(F)cccc2F)CC1 (stereo not drawn),-13.5
4,Fc1c(F)c(C(F)(F)F)c(F)c(F)c1N1CCN(c2ccc3nnc(C(F)(F)F)n3n2)CC1,11.6
5,CCCCc1cc(=O)oc2c(C)c(OCC(=O)N3C[C@H]4C[C@@H](C3)c3cccc(=O)n3C4)ccc12,-45.1
6,CC(=O)c1ccc(Nc2cc(C)nc3ccccc23)cc1,-1.11
7,CCOC(=O)N1CCN(C(=O)CSc2nnc(Cn3c(=O)sc4ccccc43)n2C)CC1,9.65
8,Cn1nc(CC(=O)Nc2ncc(Br)s2)c2ccccc2c1=O,15.3
9,Cc1ccc(S(=O)(=O)/N=C(/c2ccccc2)N2CCOCC2)c(C)c1,12.3
10,COCCNc1nc2c(c(=O)n(C)c(=O)n2C)n1Cc1cccc(C)c1,6.98
11,CCOC(=O)c1cc(NC(=O)c2cccnc2)ccc1N1CCOCC1,6.57
12,N#Cc1c(/N=C/c2ccc(O)cc2O)sc2c1C1CCN2CC1,4.04
13,COc1ccccc1C1(O)C(=O)Nc2ccccc21 (stereo not drawn),18.3
14,CCS(=O)(=O)NCCc1ccc(OC)c(OC)c1,5.84
15,O=C(Nc1cccc(C(=O)Nc2ccc(Cl)cn2)c1)c1ccccc1,12.4
16,O=C(NC1CC1)c1nc(Cn2ccc([N+](=O)[O-])n2)no1,10.5
17,C[N+]1(CC(=O)Nc2ccccc2Cl)CCN(C(=O)c2cccs2)CC1.[Cl-],7.95
18,N#CC1(Cc2ccc(Cl)cc2)c2ccccc2C=CN1C(=O)c1ccccc1 (stereo not drawn),-1.53
19,O=C(Nc1ccc(Cl)cc1[N+](=O)[O-])c1ccc2c(c1)OCCO2,-12.4
20,C=CC[C@]12C[C@@H](OC)C(=O)C=C1O[C@@H](c1ccc(OC)c(OC)c1)[C@H]2C,12.1
21,COc1ccc(-n2ncc3c(N4CCC(C(N)=O)CC4)ncnc32)cc1,0.311
22,C=CCn1c(SCC(=O)NCCCO)nc2sc3c(c2c1=O)CCC3,9.79
23,Cc1n[nH]c(C)c1NC(=O)c1cc([N+](=O)[O-])ccc1Cl,14.6

row,Compound,"hERG current change (%, negative = inhibition) at 1uM [%]"
1,CCc1cc2cc(C)ccc2nc1SCC(=O)Nc1cc(C)on1,4.09
2,CN1CCN(/C=C(\C#N)S(=O)(=O)c2ccc(Cl)cc2)CC1,6.59
3,COc1ccccc1NC(=O)CCSc1nc(C)cc(C)n1,3.73
4,O=C1OC(c2ccccc2)=C/C1=C/N1CCOCC1,8.29
5,O=C(Nc1ccc2c(c1)OCCO2)c1ccoc1,11
6,CCCCC(=O)Nc1cccc(NC(=S)NC(C)=O)c1,5.2
7,Cc1ccc(CNc2ccc(CNc3ncn[nH]3)cc2)cc1,-0.44
8,Cc1nn2c(=O)cc(CSCC(=O)Nc3ccccc3Cl)nc2s1,14.3
9,CC(=O)c1ccc(NC(=O)N2C3CCC2CC(O)(c2cccnc2)C3)cc1 (stereo not drawn),8.63
10,O=C(CCl)Nc1cccn2ncnc12,14.1
11,COC(=O)Cn1nc(-c2ccccc2)c2ccccc2c1=O,16.4
12,Cc1c(Nc2ccc(C=O)cc2)c(=O)n(-c2ccccc2)n1C,-1.99
13,CN(C(=O)CSc1nnc(CN2CCCC2)n1Cc1ccccc1)c1ccccc1,-4.75
14,CNC(=O)c1ccc(NC(=O)CC2SC(N3CCCC3)=NC2=O)cc1 (stereo not drawn),1.69
15,COc1ccc(OC)c(C(=O)NC(CC(N)=O)c2ccc(NCc3ccccn3)c([N+](=O)[O-])c2)c1 (stereo not drawn),12.6
16,Cn1c(N2C(=O)CC(Cc3ccccc3)C2=O)nc2ccccc21 (stereo not drawn),7.68
17,Nc1ccn(CC(=O)NCCc2ccccn2)c(=O)n1,12.6
18,COc1cc(CN2CCNC(=O)C2CC(=O)NCc2csc(C(C)C)n2)cc(OC)c1 (stereo not drawn),11.4
19,Cc1ccc(OC(=O)c2cc(=O)c3ccccc3o2)cc1,10.3
20,COCCCNS(=O)(=O)c1ccc(S(=O)(=O)N2CCCC2)cc1,0.13
21,O=C(O)c1ccccc1-c1nc2ccccc2c(=O)n1O,12.4
22,COc1ccc(/C=N/NC(=O)c2cc3c(ccc4ccccc43)o2)cc1OC,11.8
23,Cc1ccc(C)c(NC(=O)CCC(=O)NNC(=S)Nc2ccccc2)c1,9.09

row,Compound,"hERG current change (%, negative = inhibition) at 1uM [%]"
1,COc1ccccc1NC(=O)CCn1c(=S)oc2ccccc21,7.72
2,CC(c1ccccc1)N1C(=O)c2ccc(C(=O)NCc3cccnc3)cc2C1=O (stereo not drawn),11.6
3,Cc1sc2ncnc(SCc3ccc(C(=O)O)cc3)c2c1C,2.06
4,CC(=O)Nc1ccccc1C(=O)C(=O)Nc1ccc(F)c(Cl)c1,13.6
5,COc1ccc(CNS(=O)(=O)CCNC(=O)c2ccc3c(c2)OCO3)cc1,-0.528
6,CCN(CC)CCN1C(=O)C2C(C(=O)Nc3ccc(C(C)C)cc3)C3C=CC2(O3)C1C(=O)NC1CCCCC1 (stereo not drawn),15.2
7,CCOCC(=O)OCC(=O)NC12CC3CC(CC(C3)C1)C2,12.1
8,COC(=O)C(N)Cc1ccc(Cl)cc1.Cl (stereo not drawn),5.98
9,Cc1ccc(S(=O)(=O)N2CCCCC2)cc1NC(=O)[C@@H]1CCCN1C(=O)c1cccs1,6.9
10,CC(=O)c1cccc(NC(=O)CCNS(=O)(=O)c2cccc(C(C)=O)c2)c1,6.02
11,COc1ccc(-c2csc(-c3ccc(O)cc3)n2)cc1,7.34
12,COC(=O)c1ccc(NC(=O)COc2ccccc2OC)cc1,11.6
13,Cc1ccccc1-c1noc(-c2ccccc2C(=O)NCc2ccco2)n1,11.8
14,COc1ccccc1C(=O)NNC(=O)c1cccc(C)c1,17.8
15,ClCCOCCCl,13
16,COc1ccc(CN=C(Nc2ccccc2)SC2CC(=O)N(C)C2=O)cc1 (stereo not drawn),4.69
17,NC(=O)c1sc2nc(-c3ccccc3)c3c(c2c1N)CCCC3,13.8
18,Cc1ccc(NC(=O)CSc2nnc(CCCCCNC(=O)OC(C)(C)C)o2)c(C)c1,-15.7
19,COC(=O)C1=C(C)N(C)C(C)=C(C(=O)OC)C1c1ccncc1,7.38
20,CCOC(=O)c1cc(C#N)c(N2CCN(C(=O)c3ccccc3)CC2)nc1C(F)(F)F,-0.955
21,CC(=O)N1c2ccc(S(=O)(=O)N3CCC(C(=O)NC4CCCC(C)C4C)CC3)cc2CC1C (stereo not drawn),7.55
